Target: T1, biotinylated truncated STAT6 (123-632)-avi (Homo sapiens, UniProt P42226)
T1 sequence (P42226 123-632 limits assumed): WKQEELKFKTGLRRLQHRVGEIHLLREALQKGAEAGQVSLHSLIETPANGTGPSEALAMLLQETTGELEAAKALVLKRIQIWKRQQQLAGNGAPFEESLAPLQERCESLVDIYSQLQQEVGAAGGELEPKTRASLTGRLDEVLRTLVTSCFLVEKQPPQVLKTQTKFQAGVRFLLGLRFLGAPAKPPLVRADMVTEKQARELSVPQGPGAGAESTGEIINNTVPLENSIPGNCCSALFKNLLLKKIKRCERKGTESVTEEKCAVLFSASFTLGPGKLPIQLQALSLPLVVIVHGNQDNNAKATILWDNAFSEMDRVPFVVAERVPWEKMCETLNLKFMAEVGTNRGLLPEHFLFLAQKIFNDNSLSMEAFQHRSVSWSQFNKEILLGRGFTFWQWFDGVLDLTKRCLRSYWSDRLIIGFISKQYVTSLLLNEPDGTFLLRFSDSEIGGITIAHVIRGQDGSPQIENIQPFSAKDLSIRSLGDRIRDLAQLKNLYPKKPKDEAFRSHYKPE
Assay: Homogenous Time-Resolved Fluorescence (HTRF) binding assay
Details: 0.15 nM biotinylated truncated STAT6 (123-632)-avi, 20 nM fluorescein-labeled probe

Row | Structure (SMILES) | IC50 (30 minutes at room temperature) | IC50 (30 minutes room temperature)
1 | CCc1ccncc1-c1cc(C2=CCCN(C(=O)CCn3ccnn3)C2)c(F)c2[nH]c(C(=O)N3CCN(c4cccc(OC)n4)CC3)cc12 [Example I-480] | < 100 nM | –
2 | COc1ccccc1-c1cc(C2=CCCN(C(=O)CCn3ccnn3)C2)cc2[nH]c(=O)oc12 [Example I-1340] | – | 100 to 1000 nM
3 | CN(C)C(=O)c1cc2cc(C3=CCCN(C(=O)CCc4nccs4)C3)ccc2o1 [Example I-815] | 100 to 1000 nM | –
4 | CC(=O)N1CCc2ccccc2[C@H]1C(=O)N1CCC=C(c2ccc3oc(C(=O)N(C)C)cc3c2)C1 (single isomer, unassigned) [Example I-176] | 10000 to 100000 nM | –
5 | COc1ccncc1-c1cc(C2=CCCN(C(=O)CCn3ccnn3)C2)c(F)c2[nH]c(C(=O)N3CCN(c4ncncc4OC)CC3)cc12 [Example I-429] | < 100 nM | –
6 | CN(C)C(=O)c1cc2ccc(C3=CCCN(C(=O)[C@@H](Cn4ccnn4)c4cccc(O)c4)C3)cc2[nH]1 [Example I-122] | 1000 to 10000 nM | –
7 | CCc1nc(C)ccc1-c1cc(C(=O)N2CCN(c3ncc(F)cc3OC)CC2)cc2c(F)c(C3CCCN(C(=O)C(=O)O)C3)n(CC3CC3)c12 (centres unmarked) [Example I-1335] | – | 1000 to 10000 nM
8 | COc1ccccc1-c1cc(C2=CCCN(C(=O)CCn3ccnn3)C2)c(F)c2[nH]c(C(=O)N3CCN(c4cc(OC)c5ccnn5c4)CC3)cc12 [Example I-917] | < 100 nM | –
9 | COc1ccccc1-c1cc(C2=CCCN(C(=O)[C@@H]3Cc4ccccc4CN3C=O)C2)cc2cc(C(=O)N(C)C)oc12 (single isomer, unassigned) [Example I-805] | 10000 to 100000 nM | –
10 | CN(C)C(=O)c1cc2cc(C3=CCCN(C(=O)CCn4nnc5ccccc54)C3)ccc2o1 [Example I-217] | 10000 to 100000 nM | –
11 | COc1ccccc1-c1cc(C2=CCCN(C(=O)CCn3ccnn3)C2)c(F)c2[nH]c(C(=O)N3CCN(c4ncnc5cccc(F)c45)CC3)cc12 [Example I-929] | < 100 nM | –
12 | CN(C)C(=O)c1cc2c(-c3cccnc3)cc(C3=CCCN(C(=O)CCn4ccnn4)C3)cc2[nH]1 [Example I-1677] | – | < 100 nM
13 | COc1ccccc1-c1cc(C2=CCCN(C(=O)CCn3ccnn3)C2)c(F)c2[nH]c(C(=O)N(C)Cc3ccc4c(c3)OCO4)cc12 [Example I-976] | < 100 nM | –
14 | COc1ccccc1-c1cc(C2=CCCN(C(C)=O)C2)c(F)c2[nH]c(C(=O)N(C)C)cc12 [Example I-1069] | < 100 nM | –
15 | COc1cc(F)cnc1N1CCN(C(=O)c2cc3c(-c4ccc5nn(C)cc5c4)cc(C4=CCCN(C(=O)CCn5ccnn5)C4)c(F)c3[nH]2)CC1 [Example I-624] | < 100 nM | –
16 | COc1ccccc1-c1cc(C2=CCCN(C(=O)CCn3ccnn3)C2)c(F)c2[nH]c(C(=O)N3CCN(c4cc(F)c(OC)c(F)c4)CC3)cc12 [Example I-1439] | – | 100 to 1000 nM
17 | CN(C)C(=O)c1cc2cc(C3=CCCN(C(=O)Cc4ccc5ncccc5c4)C3)ccc2o1 [Example I-273] | 10000 to 100000 nM | –
18 | CCn1nccc1-c1cc(C(=O)N2Cc3cnn(CC)c3C2)cc2cc(C3=CCCN(C(=O)CCn4ccnn4)C3)n(CC3CC3)c12 [Example I-544] | < 100 nM | –
19 | COc1ccncc1-c1cc(C2=CCCN(C(=O)CCn3ccnn3)C2)c(F)c2[nH]c(C(=O)N3CCN(c4ccccc4)CC3)cc12 [Example I-400] | < 100 nM | –
20 | CN(C)C(=O)c1cc2ccc(C3=CCCN(C(=O)CN(C)S(=O)(=O)c4ccccc4)C3)cc2[nH]1 [Example I-75] | 10000 to 100000 nM | –
21 | CCOc1c(F)cccc1-c1cc(C2=CCCN(C(=O)CCn3ccnn3)C2)c(F)c2[nH]c(C(=O)N3CCN(c4ncc(F)cc4OC)CC3)cc12 [Example I-643] | < 100 nM | –
22 | COC(=O)c1cc(N2CCN(C(=O)c3cc4c(-c5ccccc5OC)cc(C5=CCCN(C(=O)CCn6ccnn6)C5)c(F)c4[nH]3)CC2)cn1C [Example I-1004] | < 100 nM | –

Row | Structure (SMILES) | IC50 (30 minutes at room temperature) | IC50 (30 minutes room temperature)
23 | CCNC1CCN(C(=O)c2cc3c(-c4ccccc4OC)cc(C4=CCCN(C(=O)CCn5ccnn5)C4)c(F)c3[nH]2)CC1 [Example I-1352] | – | 100 to 1000 nM
24 | CN(C)C(=O)c1cc2cc(C3=CCCN(C(=O)CCn4ccnn4)C3)cc(-c3ccc4[nH]ccc4c3)c2o1 [Example I-1071] | < 100 nM | –
25 | Cc1cccc(-c2ncccc2C(=O)N2CCC=C(c3ccc4cc(C(=O)N(C)C)[nH]c4c3)C2)c1 [Example I-86] | 10000 to 100000 nM | –
26 | COc1ccccc1-c1cc(C2=CCCN(C(=O)CCn3ccnn3)C2)c(F)c2[nH]c(C(=O)N3CCN(c4cccc(OC(F)F)c4)CC3)cc12 [Example I-427] | < 100 nM | –
27 | CCc1ccncc1-c1cc(C2=CCCN(C(=O)CCn3ccnn3)C2)c(F)c2[nH]c(C(=O)N3CCN(c4ncc(F)cc4OC)CC3)cc12 [Example I-476] | < 100 nM | –
28 | COc1cc(F)cnc1N1CCN(C(=O)c2cc3c(-c4ccncc4C(C)C)cc(C4=CCCN(C(=O)CCn5ccnn5)C4)c(F)c3[nH]2)CC1 [Example I-703] | 10000 to 100000 nM | –
29 | COc1cc(F)cnc1N1CCN(C(=O)c2cc3c(C4=CCC(N5CCOCC5)CC4)cc(C4=CCCN(C(=O)CCn5ccnn5)C4)c(F)c3[nH]2)CC1 (centres unmarked) [Example I-1153] | < 100 nM | –
30 | COc1cccc(N2CCN(C(=O)c3cc4c(-c5cnccc5OC)cc(C5=CCCN(C(=O)CCn6ccnn6)C5)c(F)c4[nH]3)CC2)n1 [Example I-440] | < 100 nM | –
31 | COc1ccccc1-c1cc(C2=CCCN(C(=O)CCn3ccnn3)C2)c(F)c2[nH]c(C(=O)N3CCN(c4cc(C)c(O)c(C)c4)CC3)cc12 [Example I-1032] | 100 to 1000 nM | –
32 | CN(C)C(=O)c1cc2c(-c3ccc(O)cc3)cc(C3=CCCN(C(=O)CCn4ccnn4)C3)cc2[nH]1 [Example I-22] | < 100 nM | –
33 | CNc1ccc(-c2cc(C3=CCCN(C(=O)CCn4ccnn4)C3)cc3[nH]c(C(=O)N(C)C)cc23)c(F)c1 [Example I-115] | 100 to 1000 nM | –
34 | CCc1cn[nH]c1N1CCN(C(=O)c2cc3c(-c4cnccc4OC)cc(C4=CCCN(C(=O)CCn5ccnn5)C4)c(F)c3[nH]2)CC1 [Example I-540] | < 100 nM | –
35 | COc1ccccc1-c1cc(C(=O)N(C)C)cc2cc(C3=CCCN(C(=O)CCn4ccnn4)C3)n(CC3CC3)c12 [Example I-899] | < 100 nM | –
36 | CN(C)C(=O)c1cc2cc(C3=CCCN(C(=O)CCc4nccc5ccccc45)C3)ccc2o1 [Example I-206] | 10000 to 100000 nM | –
37 | COc1ccccc1-c1cc(C2=CCCN(C(=O)CCn3ccnn3)C2)c(F)c2[nH]c(C(=O)N3CCN(c4cccc(-c5ccccn5)n4)CC3)cc12 [Example I-1443] | – | < 100 nM
38 | COc1cnccc1-c1cc(C2=CCCN(C(=O)CCn3ccnn3)C2)c(F)c2[nH]c(C(=O)N3CCN(c4ncc(F)cc4OC)CC3)cc12 [Example I-666] | > 100000 nM | –
39 | Cc1cc(Cl)c(S(C)(=O)=O)cc1C(=O)N1CCC=C(c2ccc3cc(C(=O)N(C)C)[nH]c3c2)C1 [Example I-74] | 10000 to 100000 nM | –
40 | COc1ccccc1-c1cc(C2=CCCN(C(=O)CCn3ccnn3)C2)c(F)c2[nH]c(C(=O)N3CCN(CC4(C#N)CC4)CC3)cc12 [Example I-1014] | < 100 nM | –
41 | COc1ccccc1-c1cc(C2=CCCN(C(=O)CCn3ccnn3)C2)c(F)c2[nH]c(C(=O)N3CCN(c4cc(C)c(=O)n(C)c4)CC3)cc12 [Example I-1023] | < 100 nM | –
42 | CN(C)C(=O)c1cc2cc([C@H]3CCCN(C(=O)CCn4ccnn4)C3)ccc2o1 [Example I-830] | 100 to 1000 nM | –
43 | COc1cc(F)cnc1N1CCN(C(=O)c2cc3c(-c4cc(C)cc5cccnc45)cc(C4=CCCN(C(=O)CCn5ccnn5)C4)c(F)c3[nH]2)CC1 [Example I-633] | < 100 nM | –
44 | CN(C)C(=O)c1cc2ccc(C3=CCCN(C(=O)CCn4ccnn4)C3)nc2[nH]1 [Example I-196] | < 100 nM | –
